Tested on: Flu A (H1N1) New Caledonia
Assay: Virucidal activity: virus pre-incubated with compound 1 h, applied to MDCK cells 1 h, removed, CPE after 6 days
Assay type: cell-based, influenza A virus

With `CCCCN1C(=O)CC(=O)N(CCCC)C1=S` [Compound C1, 4,6(1H, 5H)-Pyrimidinedione, 1,3-dibutyldihydro-2-thioxo] the “inactivation of the virus by treatment” value (FIG. 1) was “virtually complete inactivation” and the “dose that caused a 50% inactivation (EC50)” value (visual method, virus treated 1 hour at 37° C., MDCK indicator cells) was 5.5 µg/mL.
